# Experimental data published in the supplement of paper PMC12217912.
# The list shows a part of the results. Sequences were assembled here from the parent chain. Inactive controls read about 0.05.
# B1: TEV protease; numbered along this chain (parent)
# chain: MGESLFKGPRDYNPISSSICHLTNESDGHTTSLYGIGFGPFIITNKHLFRRNNGTLVVQSLHGVFKVKDTTTLQQHLVDGRDMIIIRMPKDFPPFPQKLKFREPQREERICLVTTNFQTKSMSSMVSDTSCTFPSGDGIFWKHWIQTKDGQCGSPLVSTRDGFIVGIHSASNFTNTNNYFTSVPKNFMELLTNQEAQQWVSGWRLNADSVLWGGHKVFMVKPEEPFQPVKEATQL
# Variants of: B1
# Assay: raw area under fraction-flipped curve 0-4 h after induction (AUC4h, not background-subtracted), DNA-recorder readout of cleavage of the substrate (dimensionless); higher = more cleavage of the substrate by the protease variant
# Conditions: temperature: 34 °C; time window: 0-4 h after rhamnose induction
# Method: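 In vivo DNA recorder in E. coli TOP10(DE3) ΔrhaA at 34 °C. Each TEVp single-site mutant (parent TEVp 0) is paired with a single-site variant of the 7-mer TEVs (canonical ENLYFQ|S). The substrate sits between flexible linkers in a Bxb1-sfGFP-TEVs-SsrA fusion, so cleavage stabilises Bxb1 and speeds flipping of a recombination array, read by NGS. The value is the raw area under the fraction-flipped curve over 0-4 h after rhamnose induction (AUC4h), with ≥20 reads per time point. It is not background-subtracted; inactive controls average about 0.047.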
# 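Also: Bxb1 expression induced with 0.2% (w/v) L-rhamnose at OD600 near 0.5, cultures sampled hourly, flipped fraction per protease–substrate barcode pair counted by paired-end Illumina sequencing.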
Variant,area with substrate ENAYFQS,area with substrate ENCYFQS,area with substrate ENGYFQS,area with substrate ENIYFQS,area with substrate ENKYFQS,area with substrate ENMYFQS,area with substrate ENPYFQS,area with substrate ENQYFQS,area with substrate ENRYFQS,area with substrate ENSYFQS,area with substrate ENTYFQS,area with substrate ENVYFQS,area with substrate ENDYFQS,area with substrate ENEYFQS,area with substrate ENFYFQS,area with substrate ENHYFQS,area with substrate ENWYFQS,area with substrate ENYYFQS,area with substrate ENNYFQS
MGESLFKGPRDYNPISSSICHLTNESDGHTTSLYGIGFGPFIITNKHLFRRNNGTLVVQSLHGVFKVKDTTTLQQHLVDGRDMIIIRMPKDFPPFPQKLKFREPQREERICLVTTNFQTKSMSSMVSDYSCTFPSGDGIFWKHWIQTKDGQCGSPLVSTRDGFIVGIHSASNFTNTNNYFTSVPKNFMELLTNQEAQQWVSGWRLNADSVLWGGHKVFMVKPEEPFQPVKEATQL [T129Y],0.0774,0.0647,0.0526,0.14,0.0785,0.0721,0.0582,0.0587,0.0558,0.0645,0.0583,0.0867,,,,,,,
MGESLFKGPRDYNPISSSICHLTNESDGHTTSLYGIGFGPFIITNKHLFRRNNGTLVVQSLHGVFKVKDTTTLQQHLVDGRDMIIIRMPKDFPPFPQKLKFREPQREERICLVTTNFQTKSMSSMVSDTLCTFPSGDGIFWKHWIQTKDGQCGSPLVSTRDGFIVGIHSASNFTNTNNYFTSVPKNFMELLTNQEAQQWVSGWRLNADSVLWGGHKVFMVKPEEPFQPVKEATQL [S130L],0.0612,0.0543,,0.0951,0.0456,0.0739,0.0561,0.0326,0.044,0.0509,0.0448,0.0675,0.065,0.0597,0.0671,0.0683,0.0615,0.0516,
MGESLFKGPRDYNPISSSICHLTNESDGHTTSLYGIGFGPFIITNKHLFRRNNGTLVVQSLHGVFKVKDTTTLQQHLVDGRDMIIIRMPKDFPPFPQKLKFREPQREERICLVTTNFQTKSMSSMVSDTSRTFPSGDGIFWKHWIQTKDGQCGSPLVSTRDGFIVGIHSASNFTNTNNYFTSVPKNFMELLTNQEAQQWVSGWRLNADSVLWGGHKVFMVKPEEPFQPVKEATQL [C131R],0.0685,,0.0648,,0.0795,,,0.0593,0.0868,,0.0682,0.0913,,0.0904,,,0.0554,,
MGESLFKGPRDYNPISSSICHLTNESDGHTTSLYGIGFGPFIITNKHLFRRNNGTLVVQSLHGVFKVKDTTTLQQHLVDGRDMIIIRMPKDFPPFPQKLKFREPQREERICLVTTNFQTKSMSSMVSDTSCLFPSGDGIFWKHWIQTKDGQCGSPLVSTRDGFIVGIHSASNFTNTNNYFTSVPKNFMELLTNQEAQQWVSGWRLNADSVLWGGHKVFMVKPEEPFQPVKEATQL [T132L],0.0702,0.0622,0.0522,,,0.0837,0.0399,0.0658,0.0686,0.0684,0.0788,,0.0612,0.0629,,0.058,,0.0528,0.0468
MGESLFKGPRDYNPISSSICHLTNESDGHTTSLYGIGFGPFIITNKHLFRRNNGTLVVQSLHGVFKVKDTTTLQQHLVDGRDMIIIRMPKDFPPFPQKLKFREPQREERICLVTTNFQTKSMSSMVSDTSCPFPSGDGIFWKHWIQTKDGQCGSPLVSTRDGFIVGIHSASNFTNTNNYFTSVPKNFMELLTNQEAQQWVSGWRLNADSVLWGGHKVFMVKPEEPFQPVKEATQL [T132P],0.0487,0.0773,0.048,0.0702,,,,0.0665,0.0572,,,0.0508,,0.0571,0.044,,0.0392,,0.0598
MGESLFKGPRDYNPISSSICHLTNESDGHTTSLYGIGFGPFIITNKHLFRRNNGTLVVQSLHGVFKVKDTTTLQQHLVDGRDMIIIRMPKDFPPFPQKLKFREPQREERICLVTTNFQTKSMSSMVSDTSCWFPSGDGIFWKHWIQTKDGQCGSPLVSTRDGFIVGIHSASNFTNTNNYFTSVPKNFMELLTNQEAQQWVSGWRLNADSVLWGGHKVFMVKPEEPFQPVKEATQL [T132W],0.0607,,0.0378,,,,,,0.0477,0.0516,0.0503,0.0493,0.0565,0.0605,0.059,0.0794,0.0542,0.0561,0.0617
MGESLFKGPRDYNPISSSICHLTNESDGHTTSLYGIGFGPFIITNKHLFRRNNGTLVVQSLHGVFKVKDTTTLQQHLVDGRDMIIIRMPKDFPPFPQKLKFREPQREERICLVTTNFQTKSMSSMVSDTSCTTPSGDGIFWKHWIQTKDGQCGSPLVSTRDGFIVGIHSASNFTNTNNYFTSVPKNFMELLTNQEAQQWVSGWRLNADSVLWGGHKVFMVKPEEPFQPVKEATQL [F133T],0.0515,0.0689,,,,,,0.0779,,0.0675,,0.0831,0.066,0.0617,,,0.0483,,0.0666
MGESLFKGPRDYNPISSSICHLTNESDGHTTSLYGIGFGPFIITNKHLFRRNNGTLVVQSLHGVFKVKDTTTLQQHLVDGRDMIIIRMPKDFPPFPQKLKFREPQREERICLVTTNFQTKSMSSMVSDTSCTFISGDGIFWKHWIQTKDGQCGSPLVSTRDGFIVGIHSASNFTNTNNYFTSVPKNFMELLTNQEAQQWVSGWRLNADSVLWGGHKVFMVKPEEPFQPVKEATQL [P134I],0.0657,,0.0637,0.095,0.0559,,0.0458,0.0641,,0.0556,0.0628,0.0666,0.0681,,0.0607,,0.0812,0.0368,
MGESLFKGPRDYNPISSSICHLTNESDGHTTSLYGIGFGPFIITNKHLFRRNNGTLVVQSLHGVFKVKDTTTLQQHLVDGRDMIIIRMPKDFPPFPQKLKFREPQREERICLVTTNFQTKSMSSMVSDTSCTFSSGDGIFWKHWIQTKDGQCGSPLVSTRDGFIVGIHSASNFTNTNNYFTSVPKNFMELLTNQEAQQWVSGWRLNADSVLWGGHKVFMVKPEEPFQPVKEATQL [P134S],0.0692,0.0656,0.0535,,,,0.0292,0.0687,,,0.0507,,0.0632,0.0559,,0.0784,,,0.0563
